{"source": "ChEMBL document CHEMBL1157539", "about": "“Thousands of chemical starting points for antimalarial lead identification” (Nature, 2010)", "note": "“And” between values parts separate entries of the source, which are not always exact repeats. Equal values may be shown once. The full ranking holds about 13,000 compounds; the median of “IFI” is about 4, and the highest 2% start at about 17. Some of the results follow.", "data": [{"assay": "GSK_TCMDC: Inhibition Frequency Index (IFI). The number of non-kinase HTS assays where a compound showed > 50 % inhibition, expressed as a percentage of the number of such assays in which the compound was tested (-0 is zero)", "format": "functional", "values": [{"smiles": "COc1cc2nc(N3CCC(CNC(=O)c4ccc(NC(=O)c5ccc(Cl)cc5)cc4)CC3)nc(N)c2cc1OC", "IFI": "2.8%"}, {"smiles": "CCN(CC)CCN(Cc1ccc(-c2ccc(C(F)(F)F)cc2)cc1)C(=O)Cn1c(CCc2cccc(F)c2F)cc(=O)cc1-c1ccccc1", "IFI": "11.3%"}, {"smiles": "COc1ccc(C(=O)NCC(C)(C)c2nc(-c3ccc(Cl)c(O)c3)c(-c3ccncc3)[nH]2)cc1OCCN(C(C)C)C(C)C", "IFI": "1.47%"}, {"smiles": "CN1CCN(c2ccc(Nc3c(C(N)=O)cnc4cc(-c5ccoc5)ccc34)cc2)CC1", "IFI": "4.73%"}, {"smiles": "CCCc1cc(Cc2cnc(N)nc2N)cc(OC)c1OC", "IFI": "0.73%"}, {"smiles": "COc1ccccc1CNC(=O)c1cc(C2CC2)nc2c1cnn2C(C)C", "IFI": "1.59%"}, {"smiles": "COc1ccc(-c2cccc(CNCc3ccc(F)cc3)c2)cc1S(=O)(=O)NCCN1CCCC1", "IFI": "4.85%"}, {"smiles": "COc1cc(-c2ccc3c(-c4ccc(C(=O)N5CCN(C)CC5)cc4)n[nH]c3n2)cc(OC)c1OC", "IFI": "4%"}, {"smiles": "CC(C)c1ccc(NC(=O)NC2CCN(CCCCCN(C)C(=O)/C=C/c3ccc(Cl)c(Cl)c3)C2)cc1", "note": "(centres undefined)", "IFI": "6.72%"}, {"smiles": "Cc1cc(NCCC(=O)NCCc2ccccc2)nc(NCCc2ccc(F)cc2)n1", "IFI": "4.55%"}, {"smiles": "COc1ccc(CNC(=O)C2Cc3ccccc3CN2Cc2ccc3ccccc3c2)cc1", "note": "(centres undefined)", "IFI": "2.13%"}, {"smiles": "Cc1cc(C(F)(F)F)nn1-c1ccc(NC(=O)c2ccco2)cc1", "IFI": "-0%"}, {"smiles": "O=C(CNC1CCCCC1)Nc1cccc(C(=O)Nc2cccc(C(F)(F)F)c2)c1", "IFI": "3.42%"}, {"smiles": "Cc1cc(NC(=O)Nc2ccc(C(C)(C)C)cc2)c2ccccc2n1", "IFI": "3.7%"}, {"smiles": "O=S(=O)(Nc1cccc(CCN2CCCCC2CCN2CCCC2)c1)c1ccc(Oc2ccccc2)cc1", "note": "(centres undefined)", "IFI": "17.5%"}, {"smiles": "O=C(/C=C/c1ccc(Cl)c(Cl)c1)NCCCCCN1CCCC(C(=O)Nc2ccc(F)c(Cl)c2)C1", "note": "(centres undefined)", "IFI": "13.2%"}, {"smiles": "COc1ccccc1C1CCN(CCCCNC(=O)c2ccc(NC(=O)c3ccc(Cl)cc3)cc2)CC1", "IFI": "2.68%"}, {"smiles": "N#Cc1ccc2c(c1)CN(CCC1CCC(NC(=O)c3cc4cc(OC(F)(F)F)ccc4[nH]3)CC1)CC2", "note": "(centres undefined)", "IFI": "2.24%"}, {"smiles": "C=CCc1cccc(C)c1OCCCON1C(=N)N=C(N)NC1(C)C", "IFI": "4.29%"}, {"smiles": "O=C(Nc1cccc(-c2nn3ccccc3c2-c2ccnc(Nc3ccccc3)n2)c1)c1cc(F)ccc1F", "IFI": "4.9%"}, {"smiles": "Nc1nc(Nc2cccc(O)c2)nc2ccccc12", "IFI": "5.04%"}, {"smiles": "CSc1c(CNCCCNc2cc(=O)c3ccccc3[nH]2)[nH]c2ccccc12", "IFI": "4.9%"}, {"smiles": "CC1(C)NC(N)=NC(=N)N1OCCCOc1cc(Cl)ccc1Cl", "IFI": "8.27%"}, {"smiles": "Cc1ccc(NC(=O)c2cc([N+](=O)[O-])ccc2NCc2cccnc2)cc1Cl", "IFI": "2.4%"}, {"smiles": "Clc1ccc(OC2CCC(Cn3ccnc3)(c3ccc(Cl)cc3Cl)CC2)c(Cl)c1", "note": "(centres undefined)", "IFI": "6.62%"}, {"smiles": "Nc1nc(N)c2c3c(ccc2n1)NCCC3", "IFI": "2.48%"}, {"smiles": "COc1ccc(CNCC(C)(C)c2nc(-c3ccc(Cl)c(O)c3)c(-c3ccncc3)[nH]2)cc1", "IFI": "6.38%"}, {"smiles": "CN1CCc2ccc(NC(=O)Nc3ccc(-c4ccccc4)cc3)cc2C1", "IFI": "7.02%"}, {"smiles": "CS(=O)(=O)c1ccc(CCNCc2ccc(-c3ccc(CN(C(=O)C4CC(=O)c5ccccc54)C4Cc5ccccc5C4)cc3)nc2)cc1", "note": "(centres undefined)", "IFI": "6.99%"}, {"smiles": "C=C[C@]1(C)C[C@@H](OC(=O)c2n[nH]c3ccccc3c2=O)[C@]2(C)[C@H](C)CC[C@]3(CCC(=O)[C@H]32)[C@@H](C)[C@@H]1O", "IFI": "2.92%"}, {"smiles": "CC(C)(CNCCOc1ccc(Cl)cc1)c1nc(-c2ccnc(N)n2)c(-c2ccc(Cl)c(O)c2)[nH]1", "IFI": "6.29%"}, {"smiles": "COc1cccc(OC)c1CN1CCC(N(C)CCCCCCCCN2CCC(OC(=O)Nc3ccccc3-c3ccccc3)CC2)CC1", "IFI": "13.1%"}, {"smiles": "O=C(NCc1ccc(Cl)c(Cl)c1)c1ccc(-c2nc3cc(F)c(F)cc3[nH]2)cc1", "IFI": "0.73%"}, {"smiles": "CCC(Cc1cnc2nc(N)nc(N)c2n1)c1ccc(C(=O)O)cc1", "note": "(centres undefined)", "IFI": "1.43%"}, {"smiles": "COc1cccc(CN2CCCC(OC(c3ccc(F)cc3)c3ccc(F)cc3)C2)c1O", "note": "(centres undefined)", "IFI": "2.99%"}, {"smiles": "O=S(=O)(NCCN1CCCC1)c1ccc(-c2ccc(CNCc3ccccc3)cc2)cc1", "IFI": "8.65%"}, {"smiles": "Cc1ccc(-c2ccc3c(c2)C=C(C(=O)NCC2CCN(CC4CCN(C(=O)/C=C/c5ccc(Cl)c(Cl)c5)CC4)CC2)CCC3)cc1", "IFI": "7.86%"}, {"smiles": "CC(C)(C)NS(=O)(=O)c1cc(C(=O)N2CCC(CCN3CCC(O)(c4cccc(C(F)(F)F)c4)CC3)(c3cccc(F)c3)CC2)c(Cl)cc1F", "IFI": "5.67%"}, {"smiles": "CCCNCc1ccc(-c2ccc(CN(CCOC)C(=O)c3nn(-c4ccccc4)nc3C)cc2)nc1", "IFI": "4.51%"}, {"smiles": "COc1ccc(C(=O)Nc2cc(Br)c3c(c2)CNCC3)cc1C(F)(F)F", "IFI": "4.96%"}, {"smiles": "CCn1c(-c2nonc2N)nc2c(-c3cccc(NC(=O)Nc4ccc5c(c4)CCC5)c3)ncc(OCCCN)c21", "IFI": "14.8%"}, {"smiles": "O=C(/C=C/c1ccc(Cl)c(Cl)c1)NCCCCCN1CCC(c2c[nH]c3ccccc23)C(O)C1", "note": "(centres undefined)", "IFI": "3.5% and 2.96%"}, {"smiles": "O=C(NCCSCc1c(F)cccc1Cl)c1cnc2c(c1)nc(-c1c[nH]c(-c3ccccc3)n1)n2CCc1c[nH]cn1", "IFI": "2.99%"}, {"smiles": "N#Cc1ccc(CN2CCCN(Cc3cccc(NC(=O)c4ccc(Cl)c(Cl)c4)c3)CC2)cc1", "IFI": "4.05%"}, {"smiles": "Cn1c(NC(=O)c2ccc(CNC(=O)c3ccc(O)c(-c4ccc(Cl)c(Cl)c4)c3)cc2)nc2ccccc21", "IFI": "0.74%"}, {"smiles": "CCN1CCCC(CNC(=O)/C(=C/C=C/c2cc3cc(Cl)c(Cl)cc3[nH]2)OC)C1", "note": "(centres undefined)", "IFI": "10.3%"}, {"smiles": "Cc1ccc(C)c2sc(N3CCN(C(=O)c4ccc([N+](=O)[O-])o4)CC3)nc12", "IFI": "2.78%"}, {"smiles": "CN(C)CCN(Cc1ccccc1-c1ccc(CNCCc2ccccc2)cc1)C(=O)NC1CCCCC1", "IFI": "11.9%"}, {"smiles": "COc1ccc2ncc(F)c([C@@H](O)CN3CCC(NCc4cc5c(cn4)OCS5)CC3)c2c1", "IFI": "3.7%"}, {"smiles": "O=C(/C=C/c1ccc(Cl)c(Cl)c1)NCCCCCN1CCC(CCNC(=O)C2(c3ccc(Cl)cc3)CC2)CC1", "IFI": "14.3%"}, {"smiles": "COCCN1CCN(Cc2ccc(-c3cccc(-c4nc5ccccc5[nH]4)c3)cc2)CC1", "IFI": "0%"}, {"smiles": "CCN(CC)CCCC(C)Nc1ccnc2ccc(-c3ccccc3)cc12", "note": "(centres undefined)", "IFI": "0.72%"}, {"smiles": "CN(C)c1ccc(CN2CCC(NC(=O)c3ccc(-c4ccc(N(C)C)cc4)s3)CC2)cc1", "IFI": "15.5%"}, {"smiles": "CN(C)CCOc1cc(NC(=O)Nc2ccc(Cl)cc2C(F)(F)F)ccc1I", "IFI": "1.43%"}]}]}
